Measurements: PubChem BioAssay (NCI)
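How tested: cells in 96-well plates exposed to compound for 48 hours at five concentrations. GI50 = concentration required for 50% inhibition of growth. The concentration for full growth arrest is given as TGI.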

Test system: NCI-H322M lung
Assay: inhibition of tumour cell growth, NCI panel, 48 h

Structure (SMILES)	GI50 [µM]	TGI [µM]
Cc1cc(F)cc(NS(=O)(=O)c2ccc(-c3cnc(C4CC4)o3)cc2)c1	0.883	22.2
CCC(CC)N1C(=O)/C(=c2\sc3n(c2=O)C2C(NN=3)N(CC)C(=O)N2CC)c2ccccc21 (centres undefined)	10.4	69.5
